According to the supplement of paper PMC12217912:
The other results are listed elsewhere or left out. The full chains were built here from the parent and the listed change. Values near 0.05 are background.

B1: TEV protease; numbered along this chain (parent)
chain: MGESLFKGPRDYNPISSSICHLTNESDGHTTSLYGIGFGPFIITNKHLFRRNNGTLVVQSLHGVFKVKDTTTLQQHLVDGRDMIIIRMPKDFPPFPQKLKFREPQREERICLVTTNFQTKSMSSMVSDTSCTFPSGDGIFWKHWIQTKDGQCGSPLVSTRDGFIVGIHSASNFTNTNNYFTSVPKNFMELLTNQEAQQWVSGWRLNADSVLWGGHKVFMVKPEEPFQPVKEATQL

Variants of: B1
Assay: raw area under fraction-flipped curve 0-4 h after induction (AUC4h, not background-subtracted), DNA-recorder readout of cleavage of the substrate (dimensionless); higher = more cleavage of the substrate by the protease variant
Conditions: temperature: 34 °C; time window: 0-4 h after rhamnose induction
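Note: Bxb1 expression induced with 0.2% (w/v) L-rhamnose at OD600 near 0.5, cultures sampled hourly, flipped fraction per protease–substrate barcode pair counted by paired-end Illumina sequencing.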

| Variant | area with substrate ENAYFQS | area with substrate ENCYFQS | area with substrate ENDYFQS | area with substrate ENEYFQS | area with substrate ENFYFQS | area with substrate ENGYFQS | area with substrate ENHYFQS | area with substrate ENKYFQS | area with substrate ENMYFQS | area with substrate ENNYFQS | area with substrate ENPYFQS | area with substrate ENQYFQS | area with substrate ENSYFQS | area with substrate ENTYFQS | area with substrate ENVYFQS | area with substrate ENWYFQS | area with substrate ENYYFQS | area with substrate ENRYFQS | area with substrate ENIYFQS |
| --- | --- | --- | --- | --- | --- | --- | --- | --- | --- | --- | --- | --- | --- | --- | --- | --- | --- | --- | --- |
| R204T | 0.069 | 0.0633 | 0.0616 | 0.0661 | 0.064 | 0.0794 | 0.0638 | 0.0647 | 0.0867 | 0.0518 | 0.0671 | 0.0595 | 0.0571 | 0.0579 | 0.0827 | 0.0548 | 0.0674 | – | – |
| K221I | 0.0469 | 0.061 | 0.0579 | 0.0753 | 0.0444 | 0.0797 | – | – | 0.0689 | 0.0783 | – | 0.0656 | 0.043 | 0.055 | 0.0614 | 0.0521 | 0.0385 | 0.0574 | – |
| V220P | 0.0432 | 0.0561 | 0.0612 | 0.0759 | 0.0607 | 0.0597 | 0.07 | 0.0831 | 0.0888 | 0.0609 | – | 0.0628 | 0.0615 | 0.0592 | 0.0557 | 0.0594 | – | 0.0559 | 0.0748 |
| Q198I | 0.0599 | 0.0656 | 0.0664 | 0.0654 | 0.067 | 0.0658 | – | – | – | 0.0581 | 0.0498 | 0.0649 | 0.0409 | 0.0423 | 0.0675 | 0.0053 | – | 0.0643 | – |
| G213F | 0.0518 | 0.0476 | 0.0542 | 0.0857 | – | 0.0534 | 0.034 | 0.0578 | – | – | 0.0515 | 0.057 | 0.057 | 0.0458 | – | – | 0.0421 | 0.0669 | – |
| N206H | 0.06 | 0.0606 | 0.0606 | 0.0701 | 0.064 | 0.0606 | 0.0584 | – | – | 0.0626 | 0.0753 | 0.0693 | 0.0583 | 0.0526 | 0.0715 | – | 0.0565 | 0.0523 | 0.103 |
| N206G | 0.0566 | – | 0.0684 | 0.0501 | 0.0513 | – | – | 0.0494 | 0.0733 | 0.0591 | – | 0.0543 | – | 0.0566 | – | 0.0605 | 0.0487 | 0.0569 | – |
| A196L | 0.0572 | 0.0764 | 0.0591 | 0.0721 | 0.0577 | 0.0655 | – | – | – | 0.0568 | 0.0535 | 0.0615 | 0.0643 | 0.07 | 0.0774 | 0.0568 | 0.0621 | 0.0591 | – |
| Q197K | 0.0485 | – | 0.0652 | 0.0624 | – | 0.0617 | 0.0628 | – | – | 0.058 | 0.0708 | 0.0562 | 0.063 | 0.0617 | 0.0853 | – | 0.0557 | – | – |
| Q197G | 0.086 | – | 0.0621 | 0.0646 | 0.0549 | – | – | 0.0591 | – | – | – | 0.0766 | – | – | – | – | – | – | 0.113 |
| S201K | 0.0695 | 0.0797 | 0.0643 | – | – | 0.0412 | – | 0.0616 | 0.0845 | 0.0616 | 0.0762 | – | 0.057 | – | 0.0823 | – | – | – | – |
| S201W | 0.0716 | 0.0663 | 0.0649 | 0.0593 | 0.0657 | 0.0615 | 0.0468 | 0.0705 | – | 0.0534 | 0.0463 | 0.0537 | 0.0576 | 0.0743 | 0.059 | 0.0389 | – | 0.0526 | 0.0827 |
| W212K | 0.058 | 0.0565 | 0.026 | 0.0551 | 0.0593 | – | – | 0.0468 | – | 0.0584 | 0.0597 | 0.0437 | 0.0493 | 0.0579 | 0.0554 | 0.0604 | 0.0668 | 0.0506 | 0.0559 |
| V217Q | 0.0682 | 0.0512 | 0.062 | 0.0705 | – | 0.0531 | 0.0654 | 0.0581 | – | – | – | 0.0618 | 0.0488 | – | 0.0632 | – | 0.0564 | 0.0808 | 0.0619 |
| F187E | 0.0444 | 0.0638 | 0.0634 | 0.0501 | 0.0511 | 0.0561 | 0.0556 | 0.0498 | 0.0568 | 0.068 | 0.0498 | 0.0517 | 0.0562 | 0.0654 | 0.0432 | 0.0048 | – | – | 0.0403 |
| F187I | 0.0602 | 0.0639 | 0.0562 | 0.0566 | 0.0765 | 0.0857 | – | 0.0611 | 0.0711 | – | 0.0571 | 0.0594 | 0.0639 | 0.0626 | 0.0991 | – | – | 0.0482 | 0.0886 |
| P222C | 0.065 | 0.0544 | – | 0.0584 | 0.0783 | 0.0595 | – | 0.0532 | – | – | 0.0741 | 0.0833 | 0.0479 | 0.0508 | 0.0707 | – | 0.0498 | 0.0516 | 0.0829 |
| E223T | 0.0626 | 0.0646 | 0.0609 | 0.0716 | 0.0594 | – | – | – | – | 0.0618 | 0.0718 | 0.0552 | 0.0533 | 0.0782 | 0.0728 | 0.0622 | 0.0506 | 0.0495 | 0.0705 |
| F218P | 0.0724 | – | – | 0.0703 | – | 0.0626 | – | 0.0594 | 0.076 | 0.0641 | – | 0.0884 | 0.0695 | 0.0633 | – | – | – | 0.0511 | – |
| V200N | 0.076 | – | 0.067 | 0.0637 | 0.0728 | – | – | 0.0614 | – | – | – | – | 0.0562 | – | 0.0641 | 0.0652 | – | – | – |
| M219C | 0.0571 | – | – | 0.0236 | – | 0.0625 | – | – | – | 0.0592 | 0.0471 | – | 0.0687 | 0.0505 | – | 0.0145 | – | – | – |
| M219V | 0.0536 | 0.069 | 0.0572 | 0.0611 | 0.0472 | 0.0607 | 0.05 | – | – | 0.0588 | 0.0569 | 0.0617 | 0.0606 | 0.0713 | 0.0731 | 0.0515 | – | 0.0593 | – |
| Q194R | 0.0595 | 0.0828 | – | 0.063 | 0.0572 | – | – | 0.0697 | – | 0.064 | – | 0.0551 | 0.0657 | 0.0684 | 0.0746 | 0.0296 | – | – | 0.119 |
| H215W | 0.0588 | 0.0469 | 0.0795 | 0.0441 | 0.0429 | 0.062 | 0.0615 | – | – | 0.0549 | 0.0655 | 0.0473 | 0.0619 | 0.0533 | 0.06 | – | 0.0381 | 0.0566 | 0.0568 |
| L205W | 0.0528 | – | 0.0575 | 0.0622 | – | 0.0709 | – | – | 0.0658 | – | 0.0598 | 0.0738 | 0.0456 | – | 0.0459 | – | – | 0.0392 | 0.0868 |
| G202A | 0.0634 | 0.074 | 0.0611 | 0.062 | 0.0554 | 0.0752 | – | 0.0504 | – | 0.0655 | 0.056 | 0.0596 | 0.0615 | 0.0649 | 0.0607 | 0.0483 | – | 0.0525 | 0.066 |
